Measured values published in the supplement of paper PMC11417369.
± gives the standard deviation of the averaged measurements. The list shows a part of the results.

test system: PfAP2-I AP2 domain 3 (GST-tagged); experiment: gcPBM binding intensity (ln(normalized median fluorescence intensity)); higher = stronger DNA binding
Procedure, shortened: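 Probes on an Agilent 4 × 180k array were primer-extended, double-stranded and 36 bp long, taken from intergenic genomic regions, with negative controls added. GST-tagged P. falciparum DNA-binding domains from E. coli, about 25 μg on average, were applied to the array for 1 h in 1× PBS containing 1% milk, 0.2 mg/ml BSA, 0.5% salmon testes DNA and 0.03% Triton X-100. Binding intensity, obtained after Alexa488 anti-GST antibody detection and a 488 nm scan, is the highest Masliner-normalised natural-log median intensity across replicate spots of either probe orientation.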

| Sequence | gcPBM binding intensity (ln) |
| --- | --- |
| TAATATTTTAATTGTGTGCACATTAATATTATAAAA | 10.1 ± 0.16 |
| TATATTATTTTTTGTGGTACATGTATTTTTACCTAA [XGTACX_site4348] | 7.9 ± 0.44 |
| AAAACAAACGGACACACACACATATATATATATATA [CACACA_site5924] | 9.63 ± 0.45 |
| ACATGTAAATTTACATGTACATGTAACACTTAATAT [XGTACX_site4575] | 8.02 ± 0.45 |
| TGTAATATTTTTCATGCATGCTCTTCTTTTACATAA [TGCATGCA_site144] | 8.21 ± 0.69 |
| ATAATTTATATTACTTGTACATATTTATATGAACGA [XGTACX_site3610] | 7.5 ± 0.33 |
| TATATTAAACAATATACACACATTAATGTATCCATA [CACACA_site5523] | 7.66 ± 0.5 |
| TTATATATATATATATGTACACATATATAACATGAT [XGTACX_site6643] | 8.16 ± 0.47 |
| ATAACCTAATAATACACACACATGAATATAAATAAC [CACACA_site6584] | 8.09 ± 0.4 |
| ATATATATTTTATACGCATGTAATTATTATGTGGTC [TGCATGCA_site45] | 7.85 ± 0.55 |
| AAACAATTTGGGTGTACACATGATACGTTCGATGAG [CACACA_site5160] | 8.3 ± 0.59 |
| ATATTATACATTTATACACACATAAAAAGACAAAAA [CACACA_site3565] | 7.99 ± 0.46 |
| AAATGTTAAAAAGAGAAAAACAATAAAAAACAATTA [CACACA_negctrl_site1044] | 7.66 ± 0.44 |
| AGGTGTCATAGATGCACACAAAAGTAACACGCACCT [CACACA_site4418] | 9.27 ± 0.26 |
| AAAAGGTTATCAAAATGTACGAAATGTTACAAAAAT [XGTACX_site6215] | 7.77 ± 0.67 |
| AGTTATATGTACTACACACGTACACAAAATAAGATA [CACACA_site3719] | 8.55 ± 0.028 |
| CTTAATTTTTTTTAATGTACATACATATAAACCTTT [XGTACX_site2233] | 7.96 ± 0.45 |
| AAGGAGAAATATTGCACACGTGCAAAATGGTATGAG [CACACA_site259] | 11.1 ± 0.35 |
| TATTCTTTTATGAATACACACATATACGAAAATATT [CACACA_site6585] | 7.58 ± 0.63 |
| AAAATTAAAAATAACACACACATATTTATATTTATA [CACACA_site7329] | 7.59 ± 0.4 |
| AAAATTTTTTTTGGCGCACACTAATAATAAAATATA [CACACA_site470] | 8.6 ± 0.24 |
| GAATAATATGGACATACACACATATACATACCTATA [CACACA_site7075] | 8.07 ± 0.59 |
| AAATATTATTGACGATGTACTTCTATTCATAAGTAT [XGTACX_site3964] | 7.55 ± 0.5 |

| Sequence | gcPBM binding intensity (ln) |
| --- | --- |
| CTTTTTAATGAATACACACACACACCGATATATATA [CACACA_site5296] | 8.22 ± 0.64 |
| TAAAACTTATACAAATGTACAAATATATATATATAT [XGTACX_site4661] | 9.27 ± 0.26 |
| AGACGATAAATCATTCATTCATTTACCATCCAAAAA [CACACA_negctrl_site802] | 7.53 ± 0.65 |
| TTTTAATTAGTACAAACACACATATACAGACAAAAA [CACACA_site2563] | 8.29 ± 0.4 |
| TAATATAGAAAATGCATACACACTTTATATATATAT [CACACA_site911] | 9.02 ± 0.014 |
| TACTATTATTATTGCACACTTATTATCCCTCGGATA [CACACA_site162] | 10.5 ± 0.41 |
| AATATATATTAATACACACACACATATATATATATA [CACACA_site3786] | 9.43 ± 0.57 |
| TGATCATAGAAACACACACACAAAAAAAAAAAAAAA [CACACA_site4008] | 8.12 ± 0.65 |
| TTATTATTAGAAAAAAGTACACATATAAAATGTTAC [XGTACX_site6426] | 7.82 ± 0.092 |
| GGATACATATGTAAAAGTACACATGAATATATACAT [XGTACX_site6469] | 7.67 ± 0.52 |
| GTAAAATTAAAAATAACACACAAAAAAAAAAAAAAA [CACACA_site800] | 8.09 ± 0.76 |
| AAAAAAAAAAGAAAAAGTACATACATACATATATAT [XGTACX_site6405] | 7.88 ± 0.83 |
| TTGATAAAATCACTGGTGCATGTAGATATATAATAT | 9.46 ± 0.11 |
| AATAAACATTATTTTCGTATTCCAATTCTTTTTTTT [XGTACX_negctrl_site374] | 7.42 ± 0.94 |
| TTCTTTTTTATTTATACATGCAATAAAAAATTGATT [TGCATGCA_site730] | 8.355 ± 0.078 |
| TTTTTTTAAAACAAAAAAAAAAAAAAAAAAAAAAAA [TGCATGCA_negctrl_site418] | 8.21 ± 1.2 |
| AAGAGAGAGAAATATGCACACATAAGGGAAATAAAT [CACACA_site8300] | 8.895 ± 0.049 |
| TATATATGTATGTATGTACACACAAAAAATGGAATA [CACACA_site9235] | 8.05 ± 0.45 |
| AAAAAAAAGAAAAACACACACATATTTATTTATAAC [CACACA_site6600] | 7.54 ± 0.66 |
| TAAATAAATTTATGTACACACACAAATAAATACATA [CACACA_site5107] | 7.85 ± 0.2 |
| TATATATTAAATTATAGTACACATTATATATAATTA [XGTACX_site4841] | 7.72 ± 0.11 |
| TATATATATATATATAGTACACATATCACATAAATG [XGTACX_site6379] | 9.6 ± 0.49 |
| ATAATATATGTATGTATGCACTTTTATTATTTTTTT | 8.96 ± 0.15 |

| Sequence | gcPBM binding intensity (ln) |
| --- | --- |
| ATAATATATATATTTTGTACACATGAAAAGGAGGAT [XGTACX_site5034] | 8.47 ± 0.6 |
| ATCTTTCAATAATTCACACATATATATATATATATA [CACACA_site4598] | 9.49 ± 0.69 |
| ATATATATATATGTACACATATATGTGTTTGTTTTT [GTGCAC_negctrl_site5] | 9.54 ± 0.2 |
| CTATTACAAAGAAATTGTACATATATATATAAAAAC [XGTACX_site8800] | 8 ± 0.7 |
| AATGAAGACTTTTTTACACACTTCATATCTTATAGA [CACACA_site7046] | 7.79 ± 0.81 |
| AGCCACAATACGGAAACACACAAGTTATTTTATCAT [CACACA_site2724] | 7.79 ± 0.51 |
| AATATTTTTAATTAATGTACATATTTATTATATAAA [XGTACX_site5112] | 7.71 ± 0.38 |
| AAATTTTTTCCGATTTGTACTTATATTTCTTTATTA [XGTACX_site1762] | 7.93 ± 0.59 |
| TTTTTATGAATTCTTTTGTTAATAATAATATGTTGT [TGCATGCA_negctrl_site198] | 7.56 ± 0.62 |
| TTTTAACGTAATTCAAATGAGCAGAATTTTTTAAAA [CACACA_negctrl_site1800] | 7.46 ± 0.42 |
| TATAATAATACTTATTGTACTATTAGTTTAATTCAT [XGTACX_site6638] | 7.46 ± 0.33 |
| TATATAAATATACACCCACACACATATATATATATA [CACACA_site9247] | 9.54 ± 0.49 |
| AATAATTTAATACATACACACGTATATCTTTTTTTT [CACACA_site8632] | 7.75 ± 0.57 |
| TATATATATAACATATGTACATATATTTATAAATAC [XGTACX_site5484] | 8.44 ± 0.31 |
| TATAAAAAAAAATGTGGTACATATTTCCATTTTCCA [XGTACX_site4571] | 7.44 ± 0.34 |
| ATCGTAGTATAATATGAACACACACCCACCCACAAA [CACACA_site8616] | 8.89 ± 0.69 |
| TATATTCCACTCATTGATTTTCTCTTCTCACAAAAA [CACACA_negctrl_site1016] | 8.29 ± 0.19 |
| CATGAATTTTTTTAATGTACATTCACATCATAAAAA [XGTACX_site7475] | 7.92 ± 0.4 |
| ATATATTATATATATAGTACGTATATAAATTTAATT [XGTACX_site5041] | 7.79 ± 0.4 |
| GAAACTATGTAATGCACACCAAAATAAAATTATTAA [CACACA_site1904] | 10.9 ± 1 |
| TCTTCTTAACCAACTATGAAAAGGAAAAATATAACA [GTGCAC_negctrl_site565] | 7.67 ± 0.46 |
| TAAATCCGCACGCACACACACATATTAATAAAAAAA [CACACA_site7800] | 8.93 ± 0.042 |
| ATTATAAAAAAGAAACGTACATATTTATTGTTTTTT [XGTACX_site2161] | 7.75 ± 0.42 |

| Sequence | gcPBM binding intensity (ln) |
| --- | --- |
| AAACTAACTCTAACATGTACATATATATATATATAT [XGTACX_site6949] | 9.33 ± 0.52 |
| GCTTATTTTAATTCTTGTACTTATTTATATACAAAT [XGTACX_site2099] | 8.25 ± 0.54 |
| TAATGGTGTTCATGTGGTACACTTTATAAATTGGCA [XGTACX_site729] | 7.9 ± 0.47 |
| TTGAAAATTCTTAAGGCACACACATATATAATATAT [CACACA_site8088] | 9.98 ± 0.32 |
| TTTTGAAGTAATACATGTACTTAAATTACTAAAAAA [XGTACX_site1955] | 7.72 ± 0.53 |
| ACTTTGCGTTAAAAGAGTACATAATATTTTTTTTTT [XGTACX_site7533] | 8.1 ± 0.39 |
| ATACTTTATTAATATTGTACAAAATAAGAAAAAAAA [XGTACX_site310] | 7.75 ± 0.39 |
| CACAACAGGGTTGAGGTGCGTAAAAATAGTAGAATA [GTGCAC_site9523] | 10.05 ± 0.028 |
| ACATAAAAATTATGCACACTTAATAAAGCGAAATGT [CACACA_site3183] | 9.99 ± 0.53 |
| TATATATATATGTGTACACAAAAAATATTATATTAT [CACACA_site5505] | 9.44 ± 0.099 |
| TTTTTAATCCTTTGCGCATGTAAAATTATATATTTT [TGCATGCA_site306] | 8.3 ± 0.71 |
| ACATAATTATTATGCACACATATTTTTATGTATTTA [CACACA_site698] | 10.3 ± 0.48 |
| ATTCTATTTTTAAGTACACACATATATATATATATA [CACACA_site3658] | 9.45 ± 0.33 |
| TCATATAAGTTTAGTAGTACTAAAAGTTAGAGAGAA [XGTACX_site3430] | 7.98 ± 0.35 |
| AAATAAGAGCGTAGCACACACGCATTTTATAAATGG [CACACA_site4571] | 7.59 ± 0.71 |
| AAAACAAAAGAATTCACACATATATATATATATATA [CACACA_site4777] | 9.29 ± 0.11 |
| TGATTATTATAATTTAGTACATAATATTTTATATAA [XGTACX_site6125] | 7.51 ± 0.28 |
| CAAGGAACCAGACACACACACATAAATGTATATATA [CACACA_site752] | 7.74 ± 0.45 |
| ATATATGGAAAGAGTAGTACTATTATAGGGGTGTTA [XGTACX_site6785] | 7.9 ± 0.67 |
| TTAAACGTACATAATACACACACATGTAGACATATA [CACACA_site8635] | 8.19 ± 0.28 |
